Where “and” joins values, the source holds several entries; their conditions need not be identical. Identical values can stand only once. In all, about 290,000 compounds went through this assay and about 2,100 (0.72%) were called active. The inconclusive results got no clear call from the source; some entries with a clear call stand among them for comparison. Calls follow the shape of the dose curve; as a rule, active = well fitted inhibition curve with a large enough effect; inconclusive = small, poorly fitted or top-dose-only effect, or effect the other way; inactive = flat fitted curve, though single readings scatter. A potency beside an inconclusive call is a rough fit, not a confirmed value.
The molecules below were run against Fructose-bisphosphate aldolase (Giardia intestinalis (strain ATCC 50803 / WB clone C6)) (UniProt A8B2U2) (assay: qHTS Assay for Inhibitors of Fructose-1,6-bisphosphate Aldolase from Giardia Lamblia). Settings: purified Giardia FBPA; activity, negative = inhibition: at 59.6 µM (top of the series) unless noted.
Method in brief: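 40 nM FBPA preincubated 10 min at RT with compound (up to 57.5 uM final), then substrate plus GAPDH/TPI/NAD/arsenate coupling and diaphorase/resazurin added. Fluorescence read after 20 min at RT, 525/598 nm.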
% is scaled to controls: 0 for no effect and ±100 for the full control effect; potency is read from the fitted curve at half-maximal effect; tags tell the direction and shape of the fitted curve.
Also: nearly all actives have a fitted effect of over 55% in size.

UniProt A8B2U2, sequence (A8B2U2 whole entry, looked up): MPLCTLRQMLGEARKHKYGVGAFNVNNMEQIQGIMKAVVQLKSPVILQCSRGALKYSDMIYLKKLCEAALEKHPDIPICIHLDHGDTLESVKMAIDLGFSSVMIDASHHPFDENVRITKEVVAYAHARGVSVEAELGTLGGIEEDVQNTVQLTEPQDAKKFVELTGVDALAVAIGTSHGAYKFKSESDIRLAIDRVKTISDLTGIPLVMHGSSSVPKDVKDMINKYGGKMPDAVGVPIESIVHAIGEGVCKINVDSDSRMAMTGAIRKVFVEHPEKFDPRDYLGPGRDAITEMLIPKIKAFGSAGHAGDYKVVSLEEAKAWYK

| SMILES | Potency | activity, negative = inhibition |
| --- | --- | --- |
| CCN1CCN(c2nc(C)nc3c2sc(=S)n3C)CC1 | active: 17.7 µM |  |
| Cc1ccc(-c2cc(C(=O)NCc3ccco3)c3ccccc3n2)s1 |  | inactive: -17% |
| COc1cc(C(=O)OC2C[C@H]3CC[C@@H](C2)N3)ccc1O (some centres undefined) |  | inactive: -1.41% |
| O=C(CCc1nc2ccccc2s1)Nc1ccccc1 |  | inactive: -0.397% |
| Cc1sc2ncnc(NCCN3CCOCC3)c2c1C | inconclusive: 17.7 µM [inhibitor, single point] |  |
| Cc1cc(C)n2nc3nc4c(cc3c2n1)CCCC4 | inconclusive: 17.7 µM [inhibitor, single point] |  |
| COc1cccc(F)c1C(=O)NC(=O)Nc1ccc2nc(C)oc2c1 | inconclusive: 7.92 µM [inhibitor, partial curve] |  |
| CO/N=C/NC(=O)Cc1cn(-c2ncc(C(F)(F)F)cc2Cl)c2ccccc12 |  | inactive: -0.149% |
| CN=c1scc(-c2ccc(F)cc2)n1/N=C/c1ccc(O)c(O)c1 | inconclusive: 15.8 µM [inhibitor, single point] |  |
| O=C(O)c1ccc2c3c(cccc13)C(=O)N(OS(=O)(=O)c1ccccc1)C2=O | inconclusive: 19.9 µM [inhibitor, partial curve] |  |
| COc1ccccc1CNc1ccnc(-c2cccc(NS(C)(=O)=O)c2)n1 |  | inactive: -6.39% |
| COc1ccc(N/C(=C(/C(Cl)=C(Cl)Cl)[N+](=O)[O-])n2nnc3ccccc32)cc1OC | inconclusive: 4.46 µM [inhibitor, full curve] |  |
| Cc1cc(SCNC(=O)c2ccccc2)nc(C(C)C)n1 |  | inactive: -5.35% |
| CC(C)C[C@H](NC(=O)c1[nH]cnc1C(=O)Nc1ccccc1)C(=O)OC(C)(C)C | inconclusive: 17.7 µM [inhibitor, single point] |  |
| O=C(CN(Cc1ccco1)C(=O)Cn1nnc(-c2cccs2)n1)NCc1ccccc1 |  | inactive: 8.42% |
| Cc1cccc(CCNC(=O)c2oc3c(C)c(C)ccc3c2C)n1 |  | inactive: 2.43% |
| COc1ccc(C(=O)Nn2c(SCC(=O)NCC3CCCO3)nc3ccccc3c2=O)cc1 (centres undefined) |  | inactive: 15.6% |
| c1csc(-c2cn3ccc4ccccc4c3n2)c1 | inconclusive: 1.77 µM [inhibitor, full curve] |  |
| CCn1c(=O)c(C(=O)Nc2ncccc2O)c(O)c2ccccc21 | inconclusive: 35.5 µM [inhibitor, single point] |  |
| CCC(=O)Nc1c(-c2ccc(C)cc2)nc2ccc(C)cn12 |  | inactive: -6.33% |
| COc1ccc(-n2c(Cc3cccn3C)nnc2SCC(=O)NCc2ccco2)cc1 |  | inactive: 3.54% |
| COc1ccc(N2CCC(CNS(=O)(=O)c3cccc(C(F)(F)F)c3)C2)cc1 (centres undefined) | inconclusive: 6.29 µM [inhibitor, partial curve] |  |
| CC(C)NCC(O)c1ccc(O)c(O)c1 (centres undefined) | active: 11.2 µM |  |
| Cc1cc(Cl)c(OCCOCCN2CCN(C)CC2)c(Br)c1 | active: 22.4 µM |  |
| Cc1ccc(C)n1-c1ccc(N2CCOCC2)cc1 | inconclusive: 17.7 µM [inhibitor, partial curve] |  |

| SMILES | Potency | activity, negative = inhibition |
| --- | --- | --- |
| CC1CC(C)(C)N2C(=O)C(=C(C#N)C#N)c3cccc1c32 (centres undefined) | inconclusive: 2.23 µM [inhibitor, full curve] |  |
| C[C@@H]1CCC(=O)N(CC[C@H](Sc2ccccc2)c2ccccc2)CC1 |  | inactive: -0.687% |
| Clc1cccc(CN2COc3c(cc(Cl)c4cccnc34)C2)c1 | active: 17.7 µM |  |
| O=C(CNc1ccc2ccccc2c1)N/N=C/c1ccccn1 | inconclusive: 17.7 µM [inhibitor, partial curve] |  |
| CC(C)=C(C#N)c1nc2ccccc2s1 |  | inactive: 11.7% |
| O=C(COc1ccc([N+](=O)[O-])cc1Cl)NCC1CCCO1 (centres undefined) |  | inactive: 0.078% |
| CCOC(=O)CSc1nnc(NC(=O)CN2CCCCC2)s1 | inconclusive: 6.31 µM [inhibitor, partial curve] |  |
| COCC(=O)N1CCC2(CC1)CCN(c1ccc(-c3ccccc3)cc1)CC2 |  | inactive: 10.9% |
| CC(=O)c1ccc(NC(=O)c2cccc(NC(=O)c3ccccc3)c2)cc1 |  | inactive: -3.8% |
| Cc1ccc2[nH]c(=O)c(C(c3nnnn3C3CCCC3)N3CCCc4ccccc43)cc2c1 (centres undefined) | inconclusive: 5 µM [inhibitor, single point] |  |
| CC(Sc1n[nH]c(=O)[nH]c1=O)C(=O)OCc1ccccc1 (centres undefined) | inconclusive: 39.8 µM [inhibitor, partial curve, poor fit] |  |
| CC(C)Cc1nc2ccc(N)cc2[nH]1 | inconclusive: 17.7 µM [inhibitor, single point] |  |
| NCCSSCCN | inconclusive: 19.9 µM [inhibitor, single point] and inconclusive: 15.8 µM [inhibitor, single point] |  |
| CC(C)[C@@H]1C=C(C(=O)O)O[C@H](OCCCCO)C1 | inconclusive: 17.7 µM [inhibitor, single point] |  |
| O=C(/C=C\c1ccco1)NC(=S)Nc1ccccc1O | inconclusive: 17.7 µM [inhibitor, single point] |  |
| CCOC(=O)c1c(C)oc2c1c(C(c1cccnc1)N1CCOCC1)c(O)c1ccccc12 (centres undefined) | inconclusive: 4.46 µM [inhibitor, partial curve] |  |
| O=C(CSc1nnc2ccccn12)Nc1cccc(-c2nc3ccccc3s2)c1 |  | inactive: 6.96% |
| CCN(CC)CCCNCC(=O)Nc1ccc2c(c1)CCC2 | inconclusive: 22.3 µM [inhibitor, partial curve] |  |
| CC(=O)c1cc(C(=O)Nc2ccc3ccccc3c2)c(C)o1 |  | inactive: 1.03% |
| COc1ccc(-c2ccc(SCc3ccccn3)nn2)cc1OC | inconclusive: 22.3 µM [inhibitor, partial curve] |  |
| CS(=O)(=O)c1ccc(-n2c(=O)n(Cc3ccccc3)c(=O)c3[nH]cnc32)cc1 | inconclusive: 14.1 µM [inhibitor, partial curve] |  |
| COc1ccc2c(c1)C1(C)CC(C)(C)N2C(=O)N1c1ccccc1 (centres undefined) | inconclusive: 14.1 µM [inhibitor, single point] |  |
| CC(=O)N1CCN(c2ccc(NC(=O)c3ccc4c(c3)OCCO4)cc2Cl)CC1 | inconclusive: 15.8 µM [inhibitor, partial curve] |  |
| CC(C)(C)C(=O)[C@@H]1[C@@H]2C(=O)N(c3ccc4c(c3)OCCO4)C(=O)[C@@H]2C2c3ccccc3C=CN21 (some centres undefined) | inconclusive: 6.29 µM [inhibitor, partial curve] |  |

Reference: PubChem BioAssay AID2451 (National Center for Advancing Translational Sciences (NCATS), 2010)
